These results are taken from article PMC6212790.

This is one part of the list. At the low end of the ranking the order means little.

The experiment addresses T1, GST-Rok-C97-191 (UniProt O34857).
T1 sequence: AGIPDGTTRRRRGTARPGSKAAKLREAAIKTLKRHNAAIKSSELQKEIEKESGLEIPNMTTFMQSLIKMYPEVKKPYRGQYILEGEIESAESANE
Put plainly: protein binding microarray.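 Note: rank score from −0.5 (least bound) to 0.5 (best bound).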 Particulars: Rok is a gene silencer of Bacillus subtilis; high values mean tight binding; most listed sequences are background and not binding sites; double strand, one strand shown.
For the sequence AACGGTCG, the binding signal was -0.155 E-score.
The figure for GATTATTA is 0.225 E-score.
Under ACGAGCTA stands -0.0707 E-score.
Under CGTGGAGA stands 0.0304 E-score; under AATCAGTG, 0.0771 E-score; under CAGCAGGC, -0.193 E-score.
In turn, GACTTGCC yielded a binding signal of 0.051 E-score.
The figure for AGACGAGA is -0.00949 E-score.
The sequence AAGCGCCA showed a binding signal of -0.328 E-score.
Sequence ACGTCAGC showed a binding signal of 0.0192 E-score.
Under AGCTAGTA stands 0.336 E-score; under CGTGCCAG, -0.155 E-score.
The figure for ACATTAAT is 0.311 E-score; for ATGATTTG it is -0.0391 E-score.
The figure for AATGTACT is 0.296 E-score; for CTTCCGTA it is 0.0459 E-score.
As for GAAGACTC, the binding signal is -0.238 E-score.
Under AGTTCGAT stands 0.265 E-score.
In turn, CGGCTCCA gave a binding signal of -0.267 E-score.
In turn, AGACATTC displayed a binding signal of 0.0137 E-score.
The figure for CGGCTGGA is -0.165 E-score.
ACACGATA showed a binding signal of 0.00577 E-score.
Under GCCACGAC stands -0.199 E-score; under ATATATGA, 0.329 E-score; under AAGATTGG, 0.11 E-score.
The figure for GAATGCGA is 0.0482 E-score; for AATCGAAT it is -0.0342 E-score.
The figure for CTCGAGTA is -0.0872 E-score; for AGGCATCG it is 0.126 E-score.
CAACCCTC registered a binding signal of -0.164 E-score.
AAGCACTC showed a binding signal of -0.185 E-score.
With ATGGACAG, the binding signal was -0.0644 E-score.
Under TGTTAACA stands 0.294 E-score; under AAACGCTC, -0.13 E-score.
The sequence ATCGACTG returned a binding signal of 0.013 E-score.
Under AAACCGAC stands -0.0913 E-score; under GTCCCCAC, -0.32 E-score.
In the case of AAGCAGAG, the binding signal was -0.0342 E-score.
The figure for GAGCCTTA is -0.0648 E-score; for ACGCTTTC it is -0.059 E-score; for TTCGCAAA it is 0.0527 E-score.
The figure for GCCGCCCA is -0.137 E-score; for AACAACGA it is 0.0531 E-score; for CCCGTCTA it is -0.217 E-score.
The figure for TCCGGGAA is -0.111 E-score.
Take CCGCACCC: the binding signal is -0.264 E-score.
The figure for AGTCGACT is 0.0786 E-score; for CTGCTCCC it is -0.345 E-score; for ACTTTAAA it is 0.152 E-score.
The figure for GCCCTGCA is -0.172 E-score; for CCACGGGC it is -0.279 E-score.
Under TATCAGGA stands 0.143 E-score; under CGCCAGTA, -0.0509 E-score.
The sequence AGCGCTAT had a binding signal of -0.0227 E-score.
The figure for ATCCGTCC is -0.186 E-score; for AGGGGCTG it is -0.369 E-score.
Under ACAGCAGC stands -0.138 E-score; under CATGGCGG, -0.194 E-score; under ACCCGTCC, -0.0808 E-score.
The figure for AGAACCGG is -0.264 E-score.
For ACTTAACC, the binding signal is 0.0427 E-score.
The figure for CTTGCTAC is 0.0474 E-score; for CGGTATAC it is 0.031 E-score; for CCACAGCC it is -0.151 E-score.
The figure for AGTGCACG is -0.123 E-score; for CCCCGTCG it is -0.378 E-score; for ACTTTTTG it is -0.0572 E-score.
As to AATCGCGC, the binding signal is 0.0538 E-score.
Under CCTTCAAG stands -0.205 E-score.
Under AGGTTTAG stands 0.027 E-score; under CATTTGAG, -0.0786 E-score.
Under AGGGCCTA stands -0.147 E-score; under AAATATCA, 0.252 E-score.
AAGCCGCT: the binding signal is -0.0453 E-score.
Under CCCCGGTA stands 0.0862 E-score; under CCTGCGAC, -0.224 E-score; under GAAGGGTC, -0.284 E-score.
The figure for GATCCGGA is 0.00879 E-score.
Under AATACGGT stands 0.19 E-score; under GTTGGCCA, -0.0707 E-score.
As to TACAACGA, the binding signal was found to be 0.163 E-score.
The figure for ACGCATGA is -0.158 E-score; for GACGCGGC it is -0.272 E-score; for AATTGACA it is 0.0748 E-score.
In the case of ATGGGGTG, the binding signal was -0.148 E-score.
With AGTGCGAC, the binding signal was -0.0204 E-score.
The figure for AGCGATTA is 0.0308 E-score.
Under CCGTACAG stands -0.0637 E-score; under AATTGCTG, 0.212 E-score.
The figure for TCGTGAAA is 0.0565 E-score; for CCGCGCAA it is -0.118 E-score.
For AGTAGCTC, the binding signal stood at 0.14 E-score.
Turning to ACAATGCC, the binding signal is -0.166 E-score.
Consider CGCCGCAA, for which the binding signal was -0.234 E-score.
ACAGGGTG yielded a binding signal of -0.121 E-score.
Under GTTGATTA stands 0.195 E-score.
Consider TAAATGTA, for which the binding signal turned out to be 0.399 E-score.
The figure for ACTGTCCT is 0.0569 E-score; for AAGCGCGC it is -0.255 E-score; for CTAAGGGA it is -0.171 E-score.
Under AAATATAT stands 0.417 E-score; under GGCTAAGA, 0.0221 E-score.
CATAGGTA gave a binding signal of 0.14 E-score.
CATAAATG displayed a binding signal of 0.0536 E-score.
The figure for GAGAAAAA is 0.0631 E-score; for ACTCCTCT it is -0.0807 E-score; for GCACAGTA it is -0.172 E-score.
Consider GATCGTGA, for which the binding signal was -0.311 E-score.
Under CAAGTTTC stands 0.00138 E-score; under AAACCAAA, -0.0538 E-score; under AAACATTT, 0.0169 E-score.
The figure for ATGCCACG is -0.119 E-score; for CATCAGAC it is -0.171 E-score; for AATTAATA it is 0.305 E-score.
The sequence AATACTTG had a binding signal of 0.0788 E-score.
The figure for AGAATGTC is -0.0787 E-score; for ACTTCTTC it is -0.0743 E-score.
Under CGCTCGTA stands 0.132 E-score; under AGAATGGG, 0.0832 E-score; under CGATAACG, 0.191 E-score.
The figure for CGACTATA is 0.122 E-score.
Regarding CGACATAC, the binding signal was determined as 0.0958 E-score.
The figure for ATGCGGTC is -0.24 E-score; for GCGGCGCC it is -0.329 E-score.
The figure for GGGATACC is 0.0184 E-score; for CAGCGTGG it is -0.207 E-score.
The figure for CCCGTAGC is 0.02 E-score; for CTCCTACA it is 0.0222 E-score; for ACAACCGT it is 0.165 E-score.
As for CCGGCACG, the binding signal is -0.0932 E-score.
Under GATCAGAA stands 0.0829 E-score; under ACAAAAGG, -0.134 E-score; under AGAAATAG, 0.326 E-score.
Under CATCAAGC stands -0.279 E-score; under CGTATACG, 0.0133 E-score; under CGACCGTC, -0.0882 E-score.
Regarding TCTTCGCA, the binding signal worked out at 0.109 E-score.
The figure for AAGGACGC is -0.13 E-score.
Under AACTGAAT stands -0.0112 E-score.
Consider CACGGTGA, for which the binding signal was -0.12 E-score.
As to AGCCCACA, the binding signal is -0.207 E-score.
The figure for AACTGTTA is 0.201 E-score.
ACGTTAAG gave a binding signal of -0.00861 E-score.
Under AGCCGCCA stands -0.336 E-score; under AATCTAGA, 0.331 E-score; under GATGGAGC, -0.0473 E-score.
The sequence GGATCAAA had a binding signal of -0.144 E-score.
Under CCAATTGA stands -0.109 E-score.
For the sequence AAAAGTGA, the binding signal was -0.0623 E-score.
Under ACATTAGG stands 0.0638 E-score; under AGACCGGA, -0.00161 E-score.
Under GCCATGGA stands 0.146 E-score; under GACTCTAC, -0.0759 E-score.
For CCCTACGA, the binding signal is -0.00886 E-score.
Under CAATTATG stands 0.142 E-score.
The figure for GATTGCTA is 0.18 E-score; for AACCTGGC it is -0.0685 E-score; for ATTTTCGG it is 0.221 E-score.
The figure for GTAAGTAA is 0.238 E-score; for GTAGGGAC it is -0.135 E-score.
ACCGCTTC yielded a binding signal of -0.292 E-score.
The figure for GTCTGTAA is 0.206 E-score; for TTACGAAA it is 0.14 E-score.
CACTCGAC: the binding signal is -0.229 E-score.
The sequence ATAGCTTC showed a binding signal of 0.0377 E-score.
Under AACCGCCA stands -0.203 E-score.
On to CTCAAGGA, for which the binding signal is -0.143 E-score.
The figure for AAGTCGTG is -0.00769 E-score; for AGGACCTC it is -0.146 E-score; for ATTGATAA it is 0.243 E-score.
The figure for CTATGTCC is 0.0302 E-score; for GGGTTGAA it is -0.205 E-score.
